# Source: PubChem BioAssay AID485364 (National Center for Advancing Translational Sciences (NCATS), 2010)
# The whole screen tested about 360,000 compounds, of which about 11,000 (3.1%) were called active. Inconclusive results, whose numbers are uncertain, are shown with a selection of clear calls. Calls follow the shape of the dose curve; as a rule, active = well fitted inhibition curve with a large enough effect; inconclusive = small, poorly fitted or top-dose-only effect; inactive = no such curve, though single readings can be large or run the other way. Potencies of inconclusive entries are left out as doubtful fits.
# Molecular target: Schistosoma mansoni thioredoxin glutathione reductase (TGR) (UniProt Q962Y6)
# Experiment: qHTS Assay for the Inhibitors of Schistosoma Mansoni Peroxiredoxins; also: nearly all actives have a fitted effect of over 60% in size
# Details: purified TGR, DTNB reduction, TNB absorbance 405 nm; activity change, negative = inhibition: at 114 µM (top of the series) unless noted
# Summary of the method: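 First, TGR (20 nM dispensed) and NADPH were mixed with compound. Second, a 15 min room-temperature incubation followed. Third, further NADPH and then DTNB were added to start the reaction. Finally, TNB absorbance was monitored kinetically.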
# % is scaled to controls: 0 for no effect and ±100 for the full control effect; potency is read from the fitted curve at half-maximal effect; tags tell the direction and shape of the fitted curve.
Compound,"activity change, negative = inhibition",Potency
COCCN(C(=O)COC(=O)c1ccc(C)s1)c1c(N)n(Cc2ccccc2)c(=O)[nH]c1=O,inactive: -0.342%,–
Cc1ccc(/C=C/C(=O)Nc2nn[nH]n2)o1,–,active: 20 µM
O=C(CN1CCN(Cc2ccccc2Cl)C1=O)NCc1ccccc1Cl,–,active: 5.01 µM
C/C=C(\C)C(=O)NCCN1C2=NC[C@@H](C)N2C[C@H]1Cc1ccc(O)cc1,–,"inconclusive [inhibitor, partial curve]"
O=C(NC(=O)c1ccccc1)NC1(C(F)(F)F)OCCO1,inactive: 0.566%,–
COc1cccc(CNC(=O)CN(C)S(=O)(=O)c2cnc[nH]2)c1,–,"inconclusive [inhibitor, full curve]"
COc1ccccc1OCC(=O)Nc1ccccn1,inactive: 0%,–
O=[N+]([O-])c1ccc(N/N=C/c2cccc(O)c2)cc1,inactive: -23.9%,–
Cc1cccc(OCc2nnc(SCC(=O)Nc3ccc(C)cc3C)o2)c1,–,"inconclusive [inhibitor, partial curve]"
Cc1noc(C)c1C(=O)Nc1sc(C)c(-c2ccccc2)c1C#N,inactive: -1.29%,–
C=C[C@@H]1c2cc(C)ccc2N(S(=O)(=O)c2ccc(C)cc2)[C@H](c2ccccc2)C1(C#N)C#N,inactive: -10.1%,–
CCOC(=O)N1CCN(S(=O)(=O)N2CCCC(C(=O)NCCCN3CC(C)CC(C)C3)C2)CC1 (stereo not given),inactive: -5.12%,–
O=C(CCn1c(=O)c2cccn2c2ccc(F)cc21)NCc1ccccc1F,inactive: 2.36%,–
CC(=O)N1CCN(c2ccc(NC(=O)c3ccco3)cc2Cl)CC1,–,"inconclusive [inhibitor, single point]"
COc1cc(C2Nc3ccc4ncccc4c3C3=C2C(=O)CC(C)(C)C3)cc(OC)c1O (stereo not given),–,"inconclusive [inhibitor, partial curve]"
O=C(NCc1ccccc1)c1nnc(Cc2cccc(F)c2)o1,inactive: -9.17%,–
Cc1[nH]c2ccc(C(=O)N3CCN(c4ccccn4)CC3)cc2c1C,–,"inconclusive [inhibitor, partial curve]"
Cc1ccc(Nc2ccccc2)nn1,inactive: 7.32%,–
CC(=O)c1ccc(N2CCN(CN3C(=O)CC4(CCCC4)C3=O)CC2)c(F)c1,–,"inconclusive [inhibitor, full curve]"
O=C(CCl)N(CCc1ccccc1)CCc1ccccc1,–,active: 12.6 µM
O=C(CN1CCN(c2ccccc2F)CC1)c1ccc2c(c1)OCO2,–,"inconclusive [inhibitor, partial curve]"
COC(=O)CN1C(=O)S/C(=C/c2cc(C)n(C)c2C)C1=O,–,"inconclusive [inhibitor, partial curve]"
COc1ccc(OC)c(C(=O)c2coc3ccc(O)c(CN4CCOCC4)c23)c1,–,"inconclusive [inhibitor, single point]"
CCCS(=O)(=O)N1CCCC(C(=O)NCc2ccco2)C1 (stereo not given),–,"inconclusive [inhibitor, partial curve]"
COc1ccc2oc(=O)cc(CN3CCN(C(=O)c4ccccc4F)CC3)c2c1,–,"inconclusive [inhibitor, partial curve]"

Compound,"activity change, negative = inhibition",Potency
COc1cccc(-c2cn3c(n2)sc2cc(C(=O)NCc4cccs4)ccc23)c1,inactive: 4.02%,–
Cc1[nH]c2ccccc2c1C(=O)CN1CCN(C/C=C/c2ccccc2)CC1,–,"inconclusive [inhibitor, partial curve]"
COc1cc(-c2cc(-c3ccc(N)cc3)[nH]c(=O)c2C#N)cc(OC)c1OC,–,"inconclusive [inhibitor, partial curve]"
COc1cccc(CN(C)CC(=O)NC(=O)NCc2ccco2)c1,–,"inconclusive [inhibitor, partial curve]"
CCn1nc(C)cc1C(=O)Sc1cccc(Br)c1,–,active: 5.62 µM
Oc1cccc(C(Nc2ccccn2)c2ccc3cccnc3c2O)c1Cl (stereo not given),–,active: 3.16 µM
CCc1nnc(NC(=O)CN2CCN(Cc3ccc(F)cc3)CC2)s1,inactive: -4.77%,–
CCOC(=O)N1CCC(NS(=O)(=O)c2cc3c(cc2C)NC(=O)CO3)CC1,–,"inconclusive [inhibitor, partial curve]"
Cc1nc(N)sc1-c1csc(Nc2ccc(S(N)(=O)=O)cc2)n1,inactive: -31.3%,–
COC(=O)c1nc(NC(=S)NC(=O)c2cccs2)sc1C,–,"inconclusive [inhibitor, full curve, poor fit]"
COc1cc(-c2nc(-c3cccc(C)c3)no2)cc(OC)c1OC,inactive: 2.85%,–
COc1cccc(CNC2CCCCCCC2)c1OC,inactive: -16.5%,–
COc1cc(C(=O)O/N=C2\C=CC(=O)C=C2C)cc(OC)c1OC,–,active: 3.16 µM
CC1(C)CC(=O)C/C(=N\NC(=O)C2CC2c2ccccc2)C1 (stereo not given),–,"inconclusive [inhibitor, full curve]"
CCOCCCNC(=O)/C(C#N)=C/c1ccc(-c2ccc(S(=O)(=O)N3CCOCC3)cc2)o1,–,"inconclusive [inhibitor, partial curve]"
CCOC(=O)c1cc2c(ccn2C)n1CC(=O)N1CCN(c2ccccc2)CC1,inactive: -2.9%,–
CCN1CCc2c(sc(NC(=S)NC(=O)c3ccccc3)c2C#N)C1,–,"inconclusive [inhibitor, partial curve]"
Cn1c(=O)oc2cc(S(=O)(=O)N3CCCC(C(=O)N4CC=C(c5ccccc5)CC4)C3)ccc21 (stereo not given),–,"inconclusive [inhibitor, partial curve]"
COc1ccc(CN2CN(C(C)C)CSC2=S)cc1,–,"inconclusive [inhibitor, partial curve]"
C=CCc1cc(Cl)ccc1OCCOCCNC(C)CC (stereo not given),inactive: 8.57%,–
Cc1ccc(C)c(NC(=O)CNC(=O)N2CC(=O)Nc3ccccc32)c1,inactive: -4.82%,–
COc1ccc(/C=N/Nc2nc(C)cc(-c3ccccc3)n2)cc1OC,inactive: -22.3%,–
CCc1nn(CC(=O)NCCc2ccc(OC)cc2OC)c(=O)c2cc3sccc3n12,inactive: -5.58%,–
CCn1c(SCC(=O)C(C)(C)C)nnc1-c1ccccc1OC,–,"inconclusive [inhibitor, full curve, poor fit]"
Cc1ccc(C(=O)n2nc(-c3ccco3)nc2N)cc1,–,"inconclusive [inhibitor, partial curve]"

Compound,"activity change, negative = inhibition",Potency
COc1ccc(Cn2c(=O)c3c(nc(NCCO)n3C)n(C)c2=O)cc1,–,"inconclusive [inhibitor, partial curve, poor fit]"
Cc1ccc(C2=[N+]([O-])C3(CCCCC3=O)N(O)C2(C)C)cc1 (stereo not given),–,"inconclusive [inhibitor, single point]"
CCO[C@@H]1OC(C(=O)N2CCN(Cc3ccccc3)CC2)=C[C@H](c2cn(C(C)=O)c3ccccc23)[C@H]1CCCO,–,"inconclusive [inhibitor, partial curve]"
COc1ccc(S(=O)(=O)N2CCOC2CNC(=O)C(=O)NCc2ccco2)cc1C (stereo not given),–,"inconclusive [inhibitor, partial curve]"
c1ccc(Sc2ncnc3ccccc23)cc1,–,"inconclusive [inhibitor, full curve]"
CCCC(=O)NC(c1ccccc1)c1ccc2cccnc2c1O (stereo not given),–,"inconclusive [inhibitor, single point]"
O=C(OCCOc1ccccc1)c1n[nH]c2ccccc12,inactive: 3.43%,–
C[C@@H]1Cc2c(O)c(O)cc(O)c2C(=O)O1,–,"inconclusive [inhibitor, partial curve]"
COc1ccc(OCCOC(=O)CN2C(=O)NC3(CCCC3)C2=O)cc1,–,"inconclusive [inhibitor, partial curve]"
COc1ccc2[nH]c(=O)c(COC(=O)c3ccco3)cc2c1,–,"inconclusive [inhibitor, full curve]"
Cc1ccccc1C1=Nn2c(nnc2-c2ccco2)SC1,–,"inconclusive [inhibitor, partial curve]"
CCOc1cc(-c2nc3ccccn3c2NCC2CCCO2)ccc1O (stereo not given),inactive: -9.36%,–
C[C@H](NC(=O)C1CCN(S(=O)(=O)c2ccccc2)CC1)C(=O)NCc1ccc(Cl)c(Cl)c1,inactive: 4.12%,–
C=CCn1c(=S)[nH]c2scc(-c3ccco3)c2c1=O,–,active: 8.91 µM
CCc1nc2sc3ccccc3c(=O)c2c(=O)n1Cc1ccco1,–,active: 35.5 µM
O=C1C=CC(=O)N1c1ccc(O)cc1,–,active: 0.891 µM
Cc1ccc(C(c2nnnn2CCc2ccccc2)N2CCSCC2)cc1 (stereo not given),inactive: 6.07%,–
Cc1ccc(NC(=O)C2C3C=CC4(CN(Cc5cccnc5)C(=O)C24)O3)cc1F (stereo not given),–,"inconclusive [inhibitor, single point]"
Cc1ccc(C)c(C(=O)COC(=O)CNS(=O)(=O)c2ccccc2)c1,–,"inconclusive [inhibitor, partial curve]"
CC(C)(C)c1ccc(C(=O)Nc2ccccc2C(=O)NCCN2CCOCC2)cc1,inactive: -1.77%,–
O=C(O)c1cc(-c2ccc(/C=c3\sc4nc5ccc(Br)cc5n4c3=O)o2)ccc1Cl,–,"inconclusive [inhibitor, partial curve]"
O=C(Cc1ccc(S(=O)(=O)N2CCOCC2)s1)Nc1ccccc1N1CCCC1,–,"inconclusive [inhibitor, partial curve, poor fit]"
CC(=O)NC(c1ccco1)c1cc(Br)c2cccnc2c1O (stereo not given),–,"inconclusive [inhibitor, partial curve]"
CCOC(=O)CSc1nnc(NC(=O)c2cccc([N+](=O)[O-])c2)s1,inactive: -0.635%,–
OCCNCCc1c[nH]c2ccc(OCc3ccccc3)cc12,–,"inconclusive [inhibitor, partial curve]"
